The source of these data is patent publication US20230293711A1 (Scripps Research, published 2023).

The target in this experiment is T1, recombinant chimeric mouse CD80-Fc (mouse, UniProt Q00609 38-246, limits assumed).
T1 construct: Commercial Fc chimera; not shown: Fc, detected with anti-human Fc as in panel A
T1 sequence (looked up): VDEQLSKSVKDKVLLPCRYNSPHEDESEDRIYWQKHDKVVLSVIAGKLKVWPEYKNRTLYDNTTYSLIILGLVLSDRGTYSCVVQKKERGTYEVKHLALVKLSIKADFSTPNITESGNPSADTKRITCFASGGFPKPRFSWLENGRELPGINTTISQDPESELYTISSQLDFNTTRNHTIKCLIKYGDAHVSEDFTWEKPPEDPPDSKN
Briefly: flow cytometry on murine CD4+ and CD8+ T cells, detection with fluorescent anti-human Fc. A general note: A flow cytometer gives signals particle by particle.

B1: CD28 on murine T cells (receptor)
chain: not shown
notes: whole, on cells; T cells (expressing CD28), untreated or treated with sialidase
With B1, the binding result is given as “binds”.
